Results as given in a collection of fitness landscapes (doi:10.1016/j.celrep.2020.107928).
Whole data set: some 81,000 sequences, median “one-hybrid fitness for binding parS DNA” near -0.17, cut for the highest 2% near 0.51. Some of the results follow.

B1: Caulobacter ParB omega fusion; a variant is named by its letters at X, in order, B8GW30 (parent)
chain: MESVVVGEPGMSEGRRGLGRGLSALLGEVDAAPAQAPGEQLGGSREAPIEILQRNPDQPRRTFREEDLEDLSNSIREKGVLQPILVRPSPDTAGEYQIVAGERAWRAAQRAGLKTVPIMVRELDDLAVLEIGIIENVQRADLNVLEEALSYKVLMEKFERTQENIAQTIGKSXSHVANXMRLLXLPDEVQSYLVSGELTAXHARAIAAAADPVALAKQIIEGGLSVRETEALARKAPNLSAGKSKGGRPPRVKDTDTQALESDLSSVLGLDVSIDHRGSTGTLTITYATLEQLDDLCNRLTRGI

Variants of: B1
Test: one-hybrid fitness for binding parS DNA (scaled: cognate 1, non-cognate 0); higher = stronger binding
Conditions: with parS DNA site
Summary of the method: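 Caulobacter ParB libraries with four specificity codons randomised were screened by bacterial one-hybrid selection in the E. coli USO strain, using a HIS3 reporter whose site lies 19 bp from the promoter. Selection ran for 48 hours at 37°C on M9 lacking histidine, with 0.1 mM IPTG and 5 mM 3-AT. Plasmids were Illumina-sequenced before and after selection, three replicate libraries were pooled, and variants with under 10 reads were dropped. Fitness is the log change in each variant's read ratio to wild type, rescaled against the cognate and non-cognate sites.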

ACPI and IQSG cannot be ordered by “one-hybrid fitness for binding parS DNA” value: ≤ 0.2 for the first, ≤ 0.2 for the second.

VISN and CSES cannot be ordered by “one-hybrid fitness for binding parS DNA” value: ≤ 0.2 for the first, ≤ 0.2 for the second.

QDTG and GAGV cannot be ordered by “one-hybrid fitness for binding parS DNA” value: ≤ 0.2 for the first, ≤ 0.2 for the second.

PKPH and QANL cannot be ordered by “one-hybrid fitness for binding parS DNA” value: ≤ 0.2 for the first, ≤ 0.2 for the second.

QWDL and YDHT cannot be ordered by “one-hybrid fitness for binding parS DNA” value: ≤ 0.2 for the first, ≤ 0.2 for the second.

GILR and GPAS cannot be ordered by “one-hybrid fitness for binding parS DNA” value: ≤ 0.2 for the first, ≤ 0.2 for the second.

DMNM and SHRK cannot be ordered by “one-hybrid fitness for binding parS DNA” value: ≤ 0.2 for the first, ≤ 0.2 for the second.

YRKR and PATC cannot be ordered by “one-hybrid fitness for binding parS DNA” value: ≤ 0.2 for the first, ≤ 0.2 for the second.

DFQS and NHNR cannot be ordered by “one-hybrid fitness for binding parS DNA” value: ≤ 0.2 for the first, ≤ 0.2 for the second.

QMYG and VCPW cannot be ordered by “one-hybrid fitness for binding parS DNA” value: ≤ 0.2 for the first, ≤ 0.2 for the second.

PVAW and LMMG cannot be ordered by “one-hybrid fitness for binding parS DNA” value: ≤ 0.2 for the first, ≤ 0.2 for the second.

PVMF and QKHA cannot be ordered by “one-hybrid fitness for binding parS DNA” value: ≤ 0.2 for the first, ≤ 0.2 for the second.

RRDQ and CTTL cannot be ordered by “one-hybrid fitness for binding parS DNA” value: ≤ 0.2 for the first, ≤ 0.2 for the second.

VPYT and QILP cannot be ordered by “one-hybrid fitness for binding parS DNA” value: ≤ 0.2 for the first, ≤ 0.2 for the second.

AGLR and AYRK cannot be ordered by “one-hybrid fitness for binding parS DNA” value: ≤ 0.2 for the first, ≤ 0.2 for the second.

LTTA and YSHC cannot be ordered by “one-hybrid fitness for binding parS DNA” value: ≤ 0.2 for the first, ≤ 0.2 for the second.

HWVQ and YQNG cannot be ordered by “one-hybrid fitness for binding parS DNA” value: ≤ 0.2 for the first, ≤ 0.2 for the second.

Going from TAVT to REKC, the “one-hybrid fitness for binding parS DNA” value rises from ≤ 0.2 to 0.448.

AISD and QRCA cannot be ordered by “one-hybrid fitness for binding parS DNA” value: ≤ 0.2 for the first, ≤ 0.2 for the second.

QPIT and AKCC cannot be ordered by “one-hybrid fitness for binding parS DNA” value: ≤ 0.2 for the first, ≤ 0.2 for the second.

HDAV and VKFR cannot be ordered by “one-hybrid fitness for binding parS DNA” value: ≤ 0.2 for the first, ≤ 0.2 for the second.

HHDR and LDTM cannot be ordered by “one-hybrid fitness for binding parS DNA” value: ≤ 0.2 for the first, ≤ 0.2 for the second.

KNNG and VQAC cannot be ordered by “one-hybrid fitness for binding parS DNA” value: ≤ 0.2 for the first, ≤ 0.2 for the second.

MHRW and QQNK cannot be ordered by “one-hybrid fitness for binding parS DNA” value: ≤ 0.2 for the first, ≤ 0.2 for the second.

IQRY and NESL cannot be ordered by “one-hybrid fitness for binding parS DNA” value: ≤ 0.2 for the first, ≤ 0.2 for the second.

KADW and MPQG cannot be ordered by “one-hybrid fitness for binding parS DNA” value: ≤ 0.2 for the first, ≤ 0.2 for the second.

YKPY and QPAA cannot be ordered by “one-hybrid fitness for binding parS DNA” value: ≤ 0.2 for the first, ≤ 0.2 for the second.

QKYS and SESG cannot be ordered by “one-hybrid fitness for binding parS DNA” value: ≤ 0.2 for the first, ≤ 0.2 for the second.

IPYG and FRMS cannot be ordered by “one-hybrid fitness for binding parS DNA” value: ≤ 0.2 for the first, ≤ 0.2 for the second.

AALV and THLK cannot be ordered by “one-hybrid fitness for binding parS DNA” value: ≤ 0.2 for the first, ≤ 0.2 for the second.

GNCR and EWQK cannot be ordered by “one-hybrid fitness for binding parS DNA” value: ≤ 0.2 for the first, ≤ 0.2 for the second.

KLNN and CVAD cannot be ordered by “one-hybrid fitness for binding parS DNA” value: ≤ 0.2 for the first, ≤ 0.2 for the second.

CNSG and QVGW cannot be ordered by “one-hybrid fitness for binding parS DNA” value: ≤ 0.2 for the first, ≤ 0.2 for the second.

RQSK and QPPD cannot be ordered by “one-hybrid fitness for binding parS DNA” value: ≤ 0.2 for the first, ≤ 0.2 for the second.

QTNH and WVTS cannot be ordered by “one-hybrid fitness for binding parS DNA” value: ≤ 0.2 for the first, ≤ 0.2 for the second.

CANM and AATS cannot be ordered by “one-hybrid fitness for binding parS DNA” value: ≤ 0.2 for the first, ≤ 0.2 for the second.

ITTW and CGVR cannot be ordered by “one-hybrid fitness for binding parS DNA” value: ≤ 0.2 for the first, ≤ 0.2 for the second.

TPEN and EAQG cannot be ordered by “one-hybrid fitness for binding parS DNA” value: ≤ 0.2 for the first, ≤ 0.2 for the second.

HSRN and IKKC cannot be ordered by “one-hybrid fitness for binding parS DNA” value: ≤ 0.2 for the first, ≤ 0.2 for the second.

SKHR and KYQK cannot be ordered by “one-hybrid fitness for binding parS DNA” value: ≤ 0.2 for the first, ≤ 0.2 for the second.

Going from REMS to RLYY, the “one-hybrid fitness for binding parS DNA” value rises from 0.234 to 0.497.

PGCM and AKDG cannot be ordered by “one-hybrid fitness for binding parS DNA” value: ≤ 0.2 for the first, ≤ 0.2 for the second.

TRDG and TLSD cannot be ordered by “one-hybrid fitness for binding parS DNA” value: ≤ 0.2 for the first, ≤ 0.2 for the second.

IDVM and TPHL cannot be ordered by “one-hybrid fitness for binding parS DNA” value: ≤ 0.2 for the first, ≤ 0.2 for the second.

CSTT and TWHK cannot be ordered by “one-hybrid fitness for binding parS DNA” value: ≤ 0.2 for the first, ≤ 0.2 for the second.

TEFV and TCRL cannot be ordered by “one-hybrid fitness for binding parS DNA” value: ≤ 0.2 for the first, ≤ 0.2 for the second.

TALQ and PEVK cannot be ordered by “one-hybrid fitness for binding parS DNA” value: ≤ 0.2 for the first, ≤ 0.2 for the second.

IASL and TNAI cannot be ordered by “one-hybrid fitness for binding parS DNA” value: ≤ 0.2 for the first, ≤ 0.2 for the second.

THDE and RFVF cannot be ordered by “one-hybrid fitness for binding parS DNA” value: ≤ 0.2 for the first, ≤ 0.2 for the second.

PNTR and RPMH cannot be ordered by “one-hybrid fitness for binding parS DNA” value: ≤ 0.2 for the first, ≤ 0.2 for the second.

GPGS and SWPI cannot be ordered by “one-hybrid fitness for binding parS DNA” value: ≤ 0.2 for the first, ≤ 0.2 for the second.

RREK and PMCG cannot be ordered by “one-hybrid fitness for binding parS DNA” value: ≤ 0.2 for the first, ≤ 0.2 for the second.

RGKK and MQAC cannot be ordered by “one-hybrid fitness for binding parS DNA” value: ≤ 0.2 for the first, ≤ 0.2 for the second.

KRPQ and LAQS cannot be ordered by “one-hybrid fitness for binding parS DNA” value: ≤ 0.2 for the first, ≤ 0.2 for the second.

TRWN and FLSA cannot be ordered by “one-hybrid fitness for binding parS DNA” value: ≤ 0.2 for the first, ≤ 0.2 for the second.

RGPE and ARKL cannot be ordered by “one-hybrid fitness for binding parS DNA” value: ≤ 0.2 for the first, ≤ 0.2 for the second.

TTVC and WWSC cannot be ordered by “one-hybrid fitness for binding parS DNA” value: ≤ 0.2 for the first, ≤ 0.2 for the second.

KQNS and LRRP cannot be ordered by “one-hybrid fitness for binding parS DNA” value: ≤ 0.2 for the first, ≤ 0.2 for the second.

YFNG and VKPT cannot be ordered by “one-hybrid fitness for binding parS DNA” value: ≤ 0.2 for the first, ≤ 0.2 for the second.

Going from GGLH to RTQM, the “one-hybrid fitness for binding parS DNA” value rises from ≤ 0.2 to 0.352.

GCLR and ANMM cannot be ordered by “one-hybrid fitness for binding parS DNA” value: ≤ 0.2 for the first, ≤ 0.2 for the second.

NQSL and TTCT cannot be ordered by “one-hybrid fitness for binding parS DNA” value: ≤ 0.2 for the first, ≤ 0.2 for the second.

FKSW and GRTD cannot be ordered by “one-hybrid fitness for binding parS DNA” value: ≤ 0.2 for the first, ≤ 0.2 for the second.

SHFP and IPRV cannot be ordered by “one-hybrid fitness for binding parS DNA” value: ≤ 0.2 for the first, ≤ 0.2 for the second.

TQGF and TLCH cannot be ordered by “one-hybrid fitness for binding parS DNA” value: ≤ 0.2 for the first, ≤ 0.2 for the second.

VSGL and VGGP cannot be ordered by “one-hybrid fitness for binding parS DNA” value: ≤ 0.2 for the first, ≤ 0.2 for the second.

HRWC and LPKG cannot be ordered by “one-hybrid fitness for binding parS DNA” value: ≤ 0.2 for the first, ≤ 0.2 for the second.

DRKG and HWFG cannot be ordered by “one-hybrid fitness for binding parS DNA” value: ≤ 0.2 for the first, ≤ 0.2 for the second.

Going from CFPE to RQFC, the “one-hybrid fitness for binding parS DNA” value rises from ≤ 0.2 to 0.816.

TDEM and YPTS cannot be ordered by “one-hybrid fitness for binding parS DNA” value: ≤ 0.2 for the first, ≤ 0.2 for the second.

ARAV and CSRM cannot be ordered by “one-hybrid fitness for binding parS DNA” value: ≤ 0.2 for the first, ≤ 0.2 for the second.

HIWY and PAAK cannot be ordered by “one-hybrid fitness for binding parS DNA” value: ≤ 0.2 for the first, ≤ 0.2 for the second.

WVCC and ATTW cannot be ordered by “one-hybrid fitness for binding parS DNA” value: ≤ 0.2 for the first, ≤ 0.2 for the second.

EKTI and WMVV cannot be ordered by “one-hybrid fitness for binding parS DNA” value: ≤ 0.2 for the first, ≤ 0.2 for the second.

QIND and FYAC cannot be ordered by “one-hybrid fitness for binding parS DNA” value: ≤ 0.2 for the first, ≤ 0.2 for the second.

GIGT and PTLN cannot be ordered by “one-hybrid fitness for binding parS DNA” value: ≤ 0.2 for the first, ≤ 0.2 for the second.

In the case of GVIC, the “one-hybrid fitness for binding parS DNA” value is reported as ≤ 0.2.
